# Source: publication PMC12820563
# This is one part of the list. The list includes weakly bound sequences.
# Target: T1, MBP-FoxP3dN (UniProt Q99JB6)
# T1 sequence: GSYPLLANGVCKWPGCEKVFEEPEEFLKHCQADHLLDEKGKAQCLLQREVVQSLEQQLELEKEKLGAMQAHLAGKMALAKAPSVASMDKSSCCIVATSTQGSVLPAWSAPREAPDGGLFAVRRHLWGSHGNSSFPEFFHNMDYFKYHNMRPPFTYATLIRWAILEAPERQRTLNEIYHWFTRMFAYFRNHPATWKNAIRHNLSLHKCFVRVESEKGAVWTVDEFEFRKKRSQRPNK
# Test: PD-seq (MBP pull-down with sequencing)
# Details: 20 mM Tris-HCl pH 7.5, 100 mM NaCl, 1.5 mM MgCl2, 0.4 uM protein, 0.1 uM dsDNA library, 30 min, room temperature, amylose pull-down; high values mean tight binding; double strand, one strand shown
row,Sequence,binding signal (RPM ratio (pull-down/input))
1,GATGATTGTTCTCCCAGCTGATGAATTGTATCACTCGAGTAAACAAATTTTCCTAATCTTTCTGTTCAAGCGCCATCTAC,1.87
2,GATGATTGTTCTCCCAGCTGATGAATTGGGAGAGTCGAGTAAACAAATTTTCCTAATCTTTCTGTTCAAGCGCCATCTAC,0.22
3,GATGATTGTTCTCCCAGCTGATGAATTTAAGTTCTCGAGTAAACAAATTTTCCTAATCTTTCTGTTCAAGCGCCATCTAC,0.678
4,GATGATTGTTCTCCCAGCTGATGAATTACTGGACTCGAGTAAACAAATTTTCCTAATCTTTCTGTTCAAGCGCCATCTAC,0.285
5,GATGATTGTTCTCCCAGCTGATGAATTCGGAGAATCGAGTAAACAAATTTTCCTAATCTTTCTGTTCAAGCGCCATCTAC,0.185
6,GATGATTGTTCTCCCAGCTGATGAATTCTCCTTGTCGAGTAAACAAATTTTCCTAATCTTTCTGTTCAAGCGCCATCTAC,0.219
7,GATGATTGTTCTCCCAGCTGATGAATTAGCGATCTCGAGTAAACAAATTTTCCTAATCTTTCTGTTCAAGCGCCATCTAC,0.495
8,GATGATTGTTCTCCCAGCTGATGAATTTGGACGTTCGAGTAAACAAATTTTCCTAATCTTTCTGTTCAAGCGCCATCTAC,0.405
9,GATGATTGTTCTCCCAGCTGATGAATTCGTTGACTCGAGTAAACAAATTTTCCTAATCTTTCTGTTCAAGCGCCATCTAC,3.19
10,GATGATTGTTCTCCCAGCTGATGAATTCAACCTGTCGAGTAAACAAATTTTCCTAATCTTTCTGTTCAAGCGCCATCTAC,0.325
11,GATGATTGTTCTCCCAGCTGATGAATTTTATTGATCGAGTAAACAAATTTTCCTAATCTTTCTGTTCAAGCGCCATCTAC,5.5
12,GATGATTGTTCTCCCAGCTGATGAATTTGCTGGTTCGAGTAAACAAATTTTCCTAATCTTTCTGTTCAAGCGCCATCTAC,4.92
13,GATGATTGTTCTCCCAGCTGATGAATTGTGGATTTCGAGTAAACAAATTTTCCTAATCTTTCTGTTCAAGCGCCATCTAC,0.826
14,GATGATTGTTCTCCCAGCTGATGAATTTGAGGGTTCGAGTAAACAAATTTTCCTAATCTTTCTGTTCAAGCGCCATCTAC,0.68
15,GATGATTGTTCTCCCAGCTGATGAATTTGGTCCCTCGAGTAAACAAATTTTCCTAATCTTTCTGTTCAAGCGCCATCTAC,0.485
16,GATGATTGTTCTCCCAGCTGATGAATTCCTGCCGTCGAGTAAACAAATTTTCCTAATCTTTCTGTTCAAGCGCCATCTAC,0.357
17,GATGATTGTTCTCCCAGCTGATGAATTATTGAATTCGAGTAAACAAATTTTCCTAATCTTTCTGTTCAAGCGCCATCTAC,0.798
18,GATGATTGTTCTCCCAGCTGATGAATTACTTTGTTCGAGTAAACAAATTTTCCTAATCTTTCTGTTCAAGCGCCATCTAC,0.95
19,GATGATTGTTCTCCCAGCTGATGAATTAGGAGGATCGAGTAAACAAATTTTCCTAATCTTTCTGTTCAAGCGCCATCTAC,0.291
20,GATGATTGTTCTCCCAGCTGATGAATTGTATCGATCGAGTAAACAAATTTTCCTAATCTTTCTGTTCAAGCGCCATCTAC,0.916
21,GATGATTGTTCTCCCAGCTGATGAATTAAAGGATTCGAGTAAACAAATTTTCCTAATCTTTCTGTTCAAGCGCCATCTAC,0.287

row,Sequence,binding signal (RPM ratio (pull-down/input))
1,GATGATTGTTCTCCCAGCTGATGAATTAGCACCTTCGAGTAAACAAATTTTCCTAATCTTTCTGTTCAAGCGCCATCTAC,0.404
2,GATGATTGTTCTCCCAGCTGATGAATTGCCGGGATCGAGTAAACAAATTTTCCTAATCTTTCTGTTCAAGCGCCATCTAC,0.384
3,GATGATTGTTCTCCCAGCTGATGAATTTTCGAACTCGAGTAAACAAATTTTCCTAATCTTTCTGTTCAAGCGCCATCTAC,0.24
4,GATGATTGTTCTCCCAGCTGATGAATTTTGTAAATCGAGTAAACAAATTTTCCTAATCTTTCTGTTCAAGCGCCATCTAC,1.03
5,GATGATTGTTCTCCCAGCTGATGAATTACGCTAGTCGAGTAAACAAATTTTCCTAATCTTTCTGTTCAAGCGCCATCTAC,1.23
6,GATGATTGTTCTCCCAGCTGATGAATTATCAGATTCGAGTAAACAAATTTTCCTAATCTTTCTGTTCAAGCGCCATCTAC,0.293
7,GATGATTGTTCTCCCAGCTGATGAATTTTATTCCTCGAGTAAACAAATTTTCCTAATCTTTCTGTTCAAGCGCCATCTAC,0.565
8,GATGATTGTTCTCCCAGCTGATGAATTTTACCGCTCGAGTAAACAAATTTTCCTAATCTTTCTGTTCAAGCGCCATCTAC,0.282
9,GATGATTGTTCTCCCAGCTGATGAATTAAGTGGATCGAGTAAACAAATTTTCCTAATCTTTCTGTTCAAGCGCCATCTAC,0.634
10,GATGATTGTTCTCCCAGCTGATGAATTGGTACGCTCGAGTAAACAAATTTTCCTAATCTTTCTGTTCAAGCGCCATCTAC,0.466
11,GATGATTGTTCTCCCAGCTGATGAATTCCGCCACTCGAGTAAACAAATTTTCCTAATCTTTCTGTTCAAGCGCCATCTAC,6.15
12,GATGATTGTTCTCCCAGCTGATGAATTGAACACCTCGAGTAAACAAATTTTCCTAATCTTTCTGTTCAAGCGCCATCTAC,0.395
13,GATGATTGTTCTCCCAGCTGATGAATTCGCGTTATCGAGTAAACAAATTTTCCTAATCTTTCTGTTCAAGCGCCATCTAC,1.22
14,GATGATTGTTCTCCCAGCTGATGAATTTTTAATTTCGAGTAAACAAATTTTCCTAATCTTTCTGTTCAAGCGCCATCTAC,0.322
15,GATGATTGTTCTCCCAGCTGATGAATTTAGATCATCGAGTAAACAAATTTTCCTAATCTTTCTGTTCAAGCGCCATCTAC,0.644
16,GATGATTGTTCTCCCAGCTGATGAATTTTAGCCATCGAGTAAACAAATTTTCCTAATCTTTCTGTTCAAGCGCCATCTAC,1.79
17,GATGATTGTTCTCCCAGCTGATGAATTCGCGACGTCGAGTAAACAAATTTTCCTAATCTTTCTGTTCAAGCGCCATCTAC,0.439
18,GATGATTGTTCTCCCAGCTGATGAATTTGGCAAGTCGAGTAAACAAATTTTCCTAATCTTTCTGTTCAAGCGCCATCTAC,1.49
19,GATGATTGTTCTCCCAGCTGATGAATTCACAACATCGAGTAAACAAATTTTCCTAATCTTTCTGTTCAAGCGCCATCTAC,2.47
20,GATGATTGTTCTCCCAGCTGATGAATTGTCGAAATCGAGTAAACAAATTTTCCTAATCTTTCTGTTCAAGCGCCATCTAC,0.417
21,GATGATTGTTCTCCCAGCTGATGAATTCCTGGAATCGAGTAAACAAATTTTCCTAATCTTTCTGTTCAAGCGCCATCTAC,0.154

row,Sequence,binding signal (RPM ratio (pull-down/input))
1,GATGATTGTTCTCCCAGCTGATGAATTGTAGGGGTCGAGTAAACAAATTTTCCTAATCTTTCTGTTCAAGCGCCATCTAC,0.53
2,GATGATTGTTCTCCCAGCTGATGAATTATTACCATCGAGTAAACAAATTTTCCTAATCTTTCTGTTCAAGCGCCATCTAC,0.539
3,GATGATTGTTCTCCCAGCTGATGAATTACCCTAGTCGAGTAAACAAATTTTCCTAATCTTTCTGTTCAAGCGCCATCTAC,0.237
4,GATGATTGTTCTCCCAGCTGATGAATTATATTCATCGAGTAAACAAATTTTCCTAATCTTTCTGTTCAAGCGCCATCTAC,0.709
5,GATGATTGTTCTCCCAGCTGATGAATTCAACAGCTCGAGTAAACAAATTTTCCTAATCTTTCTGTTCAAGCGCCATCTAC,0.333
6,GATGATTGTTCTCCCAGCTGATGAATTCCATCATTCGAGTAAACAAATTTTCCTAATCTTTCTGTTCAAGCGCCATCTAC,0.795
7,GATGATTGTTCTCCCAGCTGATGAATTCCTTGATTCGAGTAAACAAATTTTCCTAATCTTTCTGTTCAAGCGCCATCTAC,0.263
8,GATGATTGTTCTCCCAGCTGATGAATTCCTTGTGTCGAGTAAACAAATTTTCCTAATCTTTCTGTTCAAGCGCCATCTAC,0.577
9,GATGATTGTTCTCCCAGCTGATGAATTTAGAAGGTCGAGTAAACAAATTTTCCTAATCTTTCTGTTCAAGCGCCATCTAC,0.292
10,GATGATTGTTCTCCCAGCTGATGAATTCGAACAGTCGAGTAAACAAATTTTCCTAATCTTTCTGTTCAAGCGCCATCTAC,0.257
11,GATGATTGTTCTCCCAGCTGATGAATTGCATCTATCGAGTAAACAAATTTTCCTAATCTTTCTGTTCAAGCGCCATCTAC,5.45
12,GATGATTGTTCTCCCAGCTGATGAATTCTCGAGGTCGAGTAAACAAATTTTCCTAATCTTTCTGTTCAAGCGCCATCTAC,0.163
13,GATGATTGTTCTCCCAGCTGATGAATTCATCGGGTCGAGTAAACAAATTTTCCTAATCTTTCTGTTCAAGCGCCATCTAC,0.356
14,GATGATTGTTCTCCCAGCTGATGAATTAACCTTCTCGAGTAAACAAATTTTCCTAATCTTTCTGTTCAAGCGCCATCTAC,0.222
15,GATGATTGTTCTCCCAGCTGATGAATTCGGATTGTCGAGTAAACAAATTTTCCTAATCTTTCTGTTCAAGCGCCATCTAC,0.919
16,GATGATTGTTCTCCCAGCTGATGAATTATGCTTCTCGAGTAAACAAATTTTCCTAATCTTTCTGTTCAAGCGCCATCTAC,2.5
17,GATGATTGTTCTCCCAGCTGATGAATTTGGGCCCTCGAGTAAACAAATTTTCCTAATCTTTCTGTTCAAGCGCCATCTAC,0.523
18,GATGATTGTTCTCCCAGCTGATGAATTTGACGCGTCGAGTAAACAAATTTTCCTAATCTTTCTGTTCAAGCGCCATCTAC,0.925
19,GATGATTGTTCTCCCAGCTGATGAATTGCAAACTTCGAGTAAACAAATTTTCCTAATCTTTCTGTTCAAGCGCCATCTAC,0.849
20,GATGATTGTTCTCCCAGCTGATGAATTTGTAGATTCGAGTAAACAAATTTTCCTAATCTTTCTGTTCAAGCGCCATCTAC,2.47
21,GATGATTGTTCTCCCAGCTGATGAATTGACGGGATCGAGTAAACAAATTTTCCTAATCTTTCTGTTCAAGCGCCATCTAC,0.304
